Source: PMC6919601, “Identification of Plasmodium dipeptidyl aminopeptidase allosteric inhibitors by high throughput screening” (PLoS ONE, 2019)
Among all 110,000 compounds or so, about 230 (0.21%) showed an effect of 50% or more. This is one part of the list.

biological target: DPAP1 (Plasmodium falciparum, UniProt Q8IIJ9); test: primary screen, percent inhibition; read by cleavage of a fluorogenic dipeptide substrate; higher = more effect of the substance; set-up: species or system P. falciparum D10 trophozoite lysates; single well
Sequence (Q8IIJ9 whole entry, looked up): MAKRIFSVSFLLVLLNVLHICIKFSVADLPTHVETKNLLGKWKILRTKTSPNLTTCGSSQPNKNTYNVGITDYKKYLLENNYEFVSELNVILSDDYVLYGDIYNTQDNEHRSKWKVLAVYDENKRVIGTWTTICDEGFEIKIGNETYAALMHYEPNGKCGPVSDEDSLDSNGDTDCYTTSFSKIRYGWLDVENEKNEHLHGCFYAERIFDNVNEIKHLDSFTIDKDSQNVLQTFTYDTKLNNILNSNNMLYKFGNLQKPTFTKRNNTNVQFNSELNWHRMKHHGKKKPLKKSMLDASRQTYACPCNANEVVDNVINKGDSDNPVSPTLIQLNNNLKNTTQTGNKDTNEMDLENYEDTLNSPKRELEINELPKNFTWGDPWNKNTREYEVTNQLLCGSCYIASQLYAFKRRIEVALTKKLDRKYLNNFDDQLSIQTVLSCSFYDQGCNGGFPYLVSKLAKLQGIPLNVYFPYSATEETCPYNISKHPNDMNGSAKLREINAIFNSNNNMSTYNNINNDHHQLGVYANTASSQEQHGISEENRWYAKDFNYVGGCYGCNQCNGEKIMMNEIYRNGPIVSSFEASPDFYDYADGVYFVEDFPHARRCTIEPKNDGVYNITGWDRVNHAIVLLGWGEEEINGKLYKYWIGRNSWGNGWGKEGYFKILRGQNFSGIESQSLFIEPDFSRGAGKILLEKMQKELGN
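Further: 30 min substrate incubation versus DMSO and 10 µM JCP410 controls.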

Compound	% Inhibition @ 10 uM
Cc1nn(-c2ccccc2)c2nc3ccc(Cl)cc3cc12	1.52%
O=C(COCc1cc(-c2cccs2)on1)NCCc1cccs1	-1.58%
Cc1ccc(C)c(Cn2cnc3c(oc4ccccc43)c2=O)c1	2.19%
CSc1ccc(Cl)c(C(=O)Nc2cccnc2)c1	-0.996%
Cc1cc(C)nc(SCc2ccc(F)cc2)n1	-1.96%
Cc1ccc2c(cnn2C(=O)CCCC(=O)NC2CCCC2)c1	0.596%
O=C(Nc1ccc2nc(O)nc(-c3ccccc3)c2c1)c1ccccc1	-3.92%
COCCCNC(=O)C1CCC(CNS(=O)(=O)c2ccccc2)CC1 (stereo not shown)	-2.72%
COc1ccc2[nH]c(SCC(O)C(C)(C)C)nc2c1 (stereo not shown)	-4.39%
CCN(CC)CCOc1c(Br)ccc2c1sc1nc3n(c(=O)c12)CCC3	4.54%
COc1ccc(NC(=O)Cc2ccccc2F)cc1	-2.09%
CCc1nnc(NC(=O)c2cc3c(s2)-c2ccc(Cl)cc2SC3)s1	0.953%
COc1ccc(N2C(=O)c3cc(Cl)c(Cl)cc3C2=O)cc1	1.52%
CCCCNC(=O)C(=O)Nc1cc(C)ccc1C	-3.57%
CCOc1ccc(NC(=O)Cc2ccccc2)cc1	-0.268%
O=C(NCCCn1ccnc1)/C(=C\c1cccnc1)NC(=O)c1ccccc1F	11.2%
COc1ccccc1[C@@H](C)C[C@H](NC(=O)c1ccc(-c2c(Cl)cccc2Cl)nc1)C(=O)NCC#N	1.61%
CCC(=O)N(CCN(Cc1ccccc1)C(=O)CC)Cc1ccccc1	-1.06%
CC(C)(C)NC(=O)CN(Cc1ccccc1)S(=O)(=O)c1ccccc1	-3.84%
N#C/C(=C\c1cc2c(cc1Cl)OCO2)c1nn(-c2ccccc2)c(N)c1C#N	13.2%
CSc1ncc(Cl)c(C(=O)NCc2ccccc2)n1	-2.85%
CCC(=O)NCc1cc(-c2nn(C)c(=O)c3ccccc23)ccc1C	-2.98%
NS(=O)(=O)c1cc(O)c2c(S(N)(=O)=O)cccc2c1	-3.77%
O=C(c1ccc(Br)o1)N1CCN(c2cccc(C(F)(F)F)c2)CC1	0.331%
O=C1CCCN2N=C(SCc3ccc(F)cc3)SC2=N1	4.65%
CCOC(=O)N1CCC(c2cc(O)n3ncc(C(=O)OC)c3n2)CC1	-2.83%

Compound	% Inhibition @ 10 uM
CCOC(=O)C1=C(C)N=c2s/c(=C\c3c[nH]c4ccccc34)c(=O)n2C1c1ccc(Cl)cc1 (stereo not shown)	3.01%
CCOc1ccccc1C(=O)Nc1ccccc1C(F)(F)F	-4.59%
CC1CC(C)CN(Cc2nc3c(c(=O)n(C)c(=O)n3C)n2Cc2ccccc2)C1 (stereo not shown)	-2.29%
Cc1ccc(C(C)C)c(OCC(=O)Nc2ccccc2C)c1	-4.06%
Cc1cc(C)nc(SCC(=O)c2cccs2)n1	0.587%
Cc1cc(C)c2nc3c(nc2c1)C(=O)c1ccccc1C3=O	-1.94%
CN(C)S(=O)(=O)Oc1cccc2cccnc12	-1.06%
Cc1ccc(C2=NS(=O)(=O)N(C)C(C(=O)N3C(C)CC(C)CC3C)=C2)cc1 (stereo not shown)	-1.06%
Nc1nnc(SCC(=O)n2c3c(c4ccccc42)CCCC3)s1	12%
Cc1oc(-c2ccc(Cl)cc2)nc1CSCC(=O)NCCCSC1CCCCC1	-2.85%
CCCn1c(NCc2cc(C)ccc2O)nc2ccccc21	-2.87%
COc1ccc(S(=O)(=O)N2CCC(C(=O)O)CC2)cc1C(=O)O	3.06%
COc1ccccc1C1CN(c2ccc(Br)cc2)N=C1c1cccs1 (stereo not shown)	1.04%
CNC(=O)c1cc2c(n(-c3ccccc3)c1=O)CC(C)(C)CC2=O	5%
Nc1c(C(=O)NCc2ccc(F)cc2)sc2nc3c(cc12)N1CCC3CC1	-0.0678%
O=C(C1CC(=O)N(C2CCCC2)C1)N1CCC(Cc2ccccc2)CC1 (stereo not shown)	3.79%
O=C(Nc1sc2c(c1C(=O)NC1CCS(=O)(=O)C1)CCCC2)c1ccc(Cl)cc1Cl (stereo not shown)	-1.89%
CN(C)CCNC(=O)CNC(=O)C1CCCCC1	-5.14%
CN(c1ccc(C(=O)N2CCCCC2)cc1)S(C)(=O)=O	-7.83%
O=c1c2ccccc2nc2cccc(-c3nc(O)c4ccccc4n3)n12	5.31%
Nc1sc2c(c1C(=O)O)CCCC2	5.39%
CC(C)(C)C1CCC(OC(=O)CCC(=O)NCc2ccccc2)CC1 (stereo not shown)	-7.42%
CC(C)C(C)(O)C#CCN1CCCCC1 (stereo not shown)	0.247%
Cc1ccc(S(=O)(=O)c2nnn3c2nc(N2CCN(C)CC2)c2sccc23)cc1	-5.57%
c1ccc(-n2nnnc2SCCN2CCCCC2)cc1	-8.11%
Cc1ncn(C23CC4CC(CC(C4)C2)C3)n1	-0.13%

Compound	% Inhibition @ 10 uM
CC1CCc2nc(NC(=O)CN3CCN(c4ccc(F)cc4)CC3)sc2C1 (stereo not shown)	-3.43%
Cc1cc(-c2ccc(C)c(S(=O)(=O)NCC(C)c3ccccc3)c2)on1 (stereo not shown)	1.32%
Cn1cccc1Cc1nnc(SCC(=O)NC2CCCC2)n1-c1ccc(Cl)cc1	0.44%
CCn1c2ccccc2c2cc(CN(C)Cc3ccccc3)ccc21	-2.34%
Cn1c(=O)c2ncn(CC(=O)Nc3ccc(Br)cc3)c2n(C)c1=O	15.8%
COC(=O)c1c(NC(=O)C2CC2)sc(C(=O)Nc2ccccc2OC)c1C	-1.82%
Clc1ccccc1-c1nnc2c3cnn(-c4ccccc4)c3ncn12	-3.96%
CCOc1ccc(CCNc2nc3ccc(Cl)cc3n3cnnc23)cc1OCC	2.76%
Cc1ccc([N+](=O)[O-])cc1NC1OC(C)C(O)C(O)C1O (stereo not shown)	-1.96%
CCNC(=O)/C(C#N)=C/c1c(Oc2ccccc2C)nc2c(C)cccn2c1=O	3.63%
CC(=O)N(C)c1ccc(NC(=O)CCc2ccccc2)cc1	2.44%
Cc1cc(/C=C2/NC(=O)N(Cc3ccccc3F)C2=O)c(C)n1Cc1ccccc1	-5.44%
Cc1ccc(OCCCCN2CCCCC2)cc1	-4.08%
COc1cc(C2C3=C(CCCC3=O)OC3=C2C(=O)CCC3)cc(Br)c1O	0.605%
COC(=O)Nc1nc2cc(-c3nnc(O)c4ccccc34)ccc2[nH]1	1.9%
CCN(CC)C(=O)CSc1nnc2c(n1)[nH]c1ccccc12	0.878%
COc1cc2c(cc1OC)C(c1ccc(Cl)c(Cl)c1)N(C)CC2 (stereo not shown)	-6.12%
CCOC(=O)c1c(C)[nH]c(C)c1S(=O)(=O)N1CCC(C)CC1	-1.61%
CCc1ccc(C2C3=C(O)CCCC3=NC(C)=C2C(=O)OC)cc1 (stereo not shown)	-4.41%
Clc1cccc(CN2CCc3c([nH]c4ccccc34)C2)c1	-1.38%
CCC(C(=O)NCCc1ccco1)n1nc(C)c2c(C)n(-c3ccccc3)nc2c1=O (stereo not shown)	-8.97%
Cc1ccc(NC(=O)CN(c2ccc(F)cc2)S(=O)(=O)c2ccccc2)cc1C	1.65%
CCc1c(C)sc(NC(=O)C2CCCCC2C(=O)O)c1C(N)=O (stereo not shown)	3.27%
COc1ccc(CCNC(=O)C2CC(c3ccc(F)cc3)=NO2)cc1OC (stereo not shown)	-2.16%
COc1cc(C(=O)Nc2ccc(C)c(C)c2)ccc1OC(F)F	-3.24%
CC(O)CNC(=O)c1ccc(-c2nn(C)c(=O)c3ccccc23)cc1 (stereo not shown)	-3.23%

Compound	% Inhibition @ 10 uM
COc1ccc(C(=O)Nc2cc(C(N)=O)cc(C(N)=O)c2)cc1	-4.72%
Cc1c(CCNC(=O)c2cc(S(=O)(=O)N(C)C)c(Cl)cc2Cl)c2ccccc2n1C	1.03%
CCOC(=O)C1CCCN(Cc2c(F)cccc2Cl)C1 (stereo not shown)	6.32%
CC(=O)Nc1cccc(/N=C/c2c(C)nn(-c3c(Cl)cc(Cl)cc3Cl)c2O)c1	7.1%
Cc1ccc(Cn2c(=O)c3c(nc4n3CCN4Cc3ccccc3)n(C)c2=O)cc1	0.274%
Cc1cc(NC(=O)CSc2nc3ccc(Br)cc3c3nc4ccccc4n23)no1	-1.68%
O=C(Nc1ccc(NC(=O)c2ccc(Cl)cc2Cl)cc1)c1ccccc1O	1.59%
CCOC(=O)N1CCc2c(sc3nc(SC)nc(SC)c23)C1	4.39%
COCCNC(=O)CSc1[nH]c(-c2ccc(F)cc2)nc1-c1ccc(C)cc1	3.48%
COc1ccc(CCNCc2c(C(=O)O)c(C)n(Cc3ccccc3)c2C)c(OC)c1OC	-1.92%
COc1ccc(CN2CCN(Cc3ccco3)CC2)c(OC)c1	-9.65%
Cc1ccccc1CSCC(=O)NCc1ccc(Cl)c(Cl)c1	5.99%
Clc1ncnc2c1oc1ccc(Br)cc12	-6.86%
CCOC(=O)c1cc(-c2ccccc2)sc1N	-2.48%
O=C(CSc1nnc(-c2ccccc2)o1)c1cc2ccccc2o1	2.72%
COc1cc(Br)cc(/C=C2/NC(=O)NC2=O)c1O	-4.93%
OCCc1c[nH]c2ccc(OCc3ccccc3)cc12	-6.52%
NC(=O)NC(c1ccccc1)c1cccnc1 (stereo not shown)	3.82%
Cc1ccc2c(CNCc3ccccc3Cl)c(C(=O)O)n(Cc3ccc(F)cc3Cl)c2c1	3.64%
COc1ccc(N(CC(=O)N2CCN(c3cccc(Cl)c3)CC2)S(C)(=O)=O)cc1Cl	4.31%
COCCCNC(=O)c1nnc(Cc2c(F)cccc2Cl)o1	4.41%
Cc1ccc(C)c(C(=O)CSc2nc(C)cc(C)n2)c1	-2.17%
CCOc1ccc(C(=O)C2=C(O)C(=O)N(Cc3cccnc3)C2c2ccccc2F)cc1 (stereo not shown)	-4.93%
CCN(C(=O)c1ccco1)c1nc(-c2ccccc2)cs1	72.9%
CN1CCN(C(=O)c2ccc(N(Cc3ccccc3Cl)S(C)(=O)=O)cc2)CC1	6.7%
